Values marked as one replicate rest on one cluster of the flow cell; about a third of the high ones do not repeat.
Tested on: ATP
Assay: switch fluorescence ratio, 500 uM ATP over buffer (Cy3 cluster intensity, sum of 5 cycles each) (fold (ratio)); higher = stronger signal-on switching upon ATP binding; sequences stand for … in TCGTCGGCAGCGTCAGATGTGTATAAGAGACAGTTTTTTTTTTTTTTTTTTTTTTTTT…TC
Conditions: aptamer strand: ATP DNA aptamer (quencher-CACCTGGGGGAGTATTGCGGAGGAAGG + anchor), 100 nM annealed; ATP concentration: 500 uM; one replicate
How it was run: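 Clusters carrying Cy3-labelled switching strands on a modified Illumina MiSeq flow-cell were annealed to 100 nM quencher-labelled ATP aptamer and imaged in selection buffer. They were imaged again after 15 min with 500 uM ATP at 22 °C, over five buffer/ATP cycles with NaOH stripping and re-annealing in between. For each cluster, the fluorescence ratio is the summed Cy3 intensity of the target cycles divided by that of the buffer cycles, averaged per switch-domain sequence. Clusters outside 100-1000 RFU were left out.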
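Further: ATP exposure 15 min at 22 °C before imaging.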

| Sequence | switch fluorescence ratio |
| --- | --- |
| GAATGCGCCA | 0.969 |
| AACGGGGATC | 1.01 |
| GTTTCGGTTA | 3.13 |
| TAGTAAGACA | 1.03 |
| TAGGCACTGT | 0.967 |
| GATGACTGTT | 1.04 |
| TAGGCATGAG | 1.03 |
| AAGTCAAGGC | 1.12 |
| TTAACGTACT | 1.76 |
| TCCGTGTTT | 1.06 |
| TTGATATCAA | 1.03 |
| CCAGTCAATT | 1.16 |
| TATGTAA | 0.956 |
| AAAGTACACC | 1.47 |
| CAAAAAAAGT | 1 |
| ATTTCAGACG | 1.03 |
| GCTTACAG | 1.02 |
| AGGCATGTAC | 1.67 |
| GTGTATACA | 0.966 |
| TGAACCCCCT | 1.28 |
| TTGACAACGC | 0.995 |
| TAGTAACTAT | 1.01 |
| GGGTGCGCCG | 0.968 |
| TCATGAATGC | 1.02 |
| GAGTGAGATC | 1.04 |
| ATGTTCAATA | 1.05 |

| Sequence | switch fluorescence ratio |
| --- | --- |
| ACTTTCGCTA | 1.36 |
| TGCTAGCAAT | 1.04 |
| GCAAAAAGAT | 1.01 |
| AATCCTTTTG | 0.974 |
| TATGCGATGG | 1.02 |
| CTAAGCGACC | 1.1 |
| ACGTAGGCCT | 1.14 |
| AAAACGACGT | 1.02 |
| CATTCAGAGC | 0.979 |
| TAGTATATG | 0.948 |
| AGGAAACAGG | 1.02 |
| ACATAGAGTT | 1.01 |
| CCCATCATGA | 0.979 |
| AAATCTAGGG | 1.01 |
| TAGTAATTAT | 1.03 |
| TGGTATTAGG | 0.971 |
| TTATCCCCTA | 0.982 |
| GCGATCTACC | 1.77 |
| GATATTAGGG | 1.03 |
| GATGGTGAGT | 0.99 |
| ACCCGGTAA | 1.01 |
| CACACACCTA | 1.27 |
| GATTGCATGT | 0.944 |
| AGTTAGTGTC | 0.996 |
| GGGTTAAGA | 0.978 |
| GTTGGGCGTC | 1.02 |

| Sequence | switch fluorescence ratio |
| --- | --- |
| ACACTCTATC | 1.1 |
| GAATTTGGTA | 0.994 |
| GGGGCTTCGG | 1.01 |
| GGGCAGTCCT | 1.01 |
| GGATGTCCGT | 1.07 |
| TAGAAAGGAG | 0.968 |
| ATTGCGGTTG | 1 |
| TTTGAACTAT | 1.01 |
| TAGTGGTAGG | 1.08 |
| AGGAAACAGT | 1.01 |
| AGTTTATGGT | 0.973 |
| ATTCTACATC | 1.02 |
| AATGGCTTGT | 0.953 |
| TAAAATAAGC | 1.04 |
| ACGGGACAAC | 1.2 |
| GATGTAACCA | 1.12 |
| CGGACGTGAT | 2.75 |
| TTGAACGGCT | 1 |
| CATTTATCTA | 0.955 |
| AGTTATCGGT | 0.999 |
| TCTAGGTTGG | 0.975 |
| GGTGGTGTT | 1.01 |
| TGGTATT | 1.03 |
| CATAAACTAA | 1.03 |
| ACTAGTAAAA | 0.971 |
| GATCAAGAAA | 1.09 |

| Sequence | switch fluorescence ratio |
| --- | --- |
| AACCGTGAAG | 1.03 |
| GTTAGGCAGG | 0.996 |
| ATGACTCCAG | 1.02 |
| TGCTGGAATT | 0.992 |
| GGGTTGTTCC | 1.03 |
| GTCAAATTAT | 1 |
| ACGTACGCCT | 1.38 |
| AATCGCAAGA | 1.07 |
| CGGATACCTT | 1.06 |
| GTGGTGCC | 0.99 |
| AAGGTGGCTC | 0.99 |
| TCACTTTCCT | 1.17 |
| TGGGCTAACG | 1.07 |
| ACACTGCAGT | 1.05 |
| GGGCGAAAGT | 0.992 |
| AACGGGGTG | 0.995 |
| TGACTGTCCT | 1.03 |
| CCTTGCGGAC | 3.81 |
| CTACTGAGGG | 1.05 |
| ATACCGGCTC | 0.972 |
| CGTCAATCAA | 1.23 |
| GTAGTCATAG | 1.06 |
| TCGGGAATAT | 1.02 |
| AGCGAAGATA | 0.976 |
| CTGTCTGCAA | 6.15 |
| AACGTCTCTA | 0.991 |

| Sequence | switch fluorescence ratio |
| --- | --- |
| TCCTGAGG | 0.995 |
| ATTGTGTGTT | 1 |
| CGAGGCGCTT | 1.01 |
| ATGTTCGTTC | 1.02 |
| TACATTATGG | 0.955 |
| CTGATACAGT | 1.04 |
| CAGGAGCATA | 4.6 |
| CCGCTAGTTT | 1.28 |
| GAGGGAGAAT | 0.97 |
| GCTATGACGG | 1.04 |
| TTTAACGAGG | 1.06 |
| GGGCCATTTA | 1.01 |
| CAATCTCTCT | 1.02 |
| CAGGCTTGTG | 1.03 |
| GCGTTTAGGA | 1.02 |
| CGGTTAAC | 1.04 |
| TTATCATTAA | 0.985 |
| ACTGCGGGAG | 1.05 |
| GGTCATGCAT | 0.991 |
| GTGAGAGCTC | 0.914 |
| GAGCAGTTCG | 0.974 |
| AGACCTGAAT | 0.979 |
| ACACCTATGG | 0.984 |
| AGATGTCCCT | 1.04 |
| GCATGCCCGC | 1.01 |
| ACGGCAGGGG | 1.29 |

| Sequence | switch fluorescence ratio |
| --- | --- |
| TATGTGGCTC | 0.948 |
| CAAACGTCGT | 1.01 |
| GGAGCAGTGG | 1.58 |
| TGGTGTCCGA | 0.953 |
| CTCATTGTTC | 1.03 |
| TCCGGATACG | 1.21 |
| TAGGCTGACC | 0.962 |
| GGCACTGCTT | 0.986 |
| TGGTGGACAG | 1.17 |
| TTGCCGCGGG | 0.971 |
| GTCCAGGTAC | 1.23 |
| GACTGATTAG | 1 |
| GTCATATCAG | 1.01 |
| TTGGGTACTG | 1.27 |
| AATCGAAATG | 0.974 |
| AAAGTCTATA | 1.04 |
| TTACCCGGTG | 1.97 |
| CGGATTATGC | 1.14 |
| TTAACCTTTA | 1.14 |
| TACGACTCTT | 1.07 |
| GTATTTCTAT | 0.98 |
| ATGCGCGGAT | 1.03 |
| ACGCCTTTAA | 1.04 |
| ATGTATAGAA | 0.955 |

— the supplement of paper PMC10126150
